Test results as given in a collection of fitness landscapes (doi:10.1126/science.1257360).
Some of the results follow.

B1: PhoQ; a variant is named by its letters at X, in order, P23837 (parent)
chain: MKKLLRLFFPLSLRVRFLLATAAVVLVLSLAYGMVALIGYSVSFDKTTFRLLRGESNLFYTLAKWENNKLHVELPENIDKQSPTMTLIYDENGQLLWAQRDVPWLMKMIQPDWLKSNGFHEIEADVNDTSLLLSGDHSIQQQLQEVREDDDDAEMTHSVAVNVYPATSRMPKLTIVVVDTIPVELKSSYMVWSWFIYVLSANLLLVIPLLWVAAWWSLRPIEALAKEVRELEEHNRELLNPATTRELTSLVRNLNRLLKSERERYDKYRTTLTDLTHSLKTPLXXLQXXLRSLRSEKMSVSDAEPVMLEQISRISQQIGYYLHRASMRGGTLLSRELHPVAPLLDNLTSALNKVYQRKGVNISLDISPEISFVGEQNDFVEVMGNVLDNACKYCLEFVEISARQTDEHLYIVVEDDGPGIPLSKREVIFDRGQRVDTLRPGQGVGLAVAREITEQYEGKIVAGESMLGGARMEVIFGRQHSAPKDE

Variants of: B1
Test: enrichment ratio after two sorts for PhoP signalling (ratio (wild type AVST 3.29)); higher = more functional
Conditions: with PhoP (E. coli)

Variant | enrichment ratio
YPHT | ≤ 0.25
WEHT | ≤ 0.25
PKGH | ≤ 0.25
TGKV | ≤ 0.25
QCHT | ≤ 0.25
FQVE | ≤ 0.25
IAQS | ≤ 0.25
AQRC | ≤ 0.25
GIHM | ≤ 0.25
SCQE | ≤ 0.25
DGTS | ≤ 0.25
DCCI | ≤ 0.25
DNNY | ≤ 0.25
PGFF | ≤ 0.25
MRCV | ≤ 0.25
EQNA | ≤ 0.25
IGFN | ≤ 0.25
RYCF | ≤ 0.25
HRVI | ≤ 0.25
FCKT | ≤ 0.25
FCPF | ≤ 0.25
WFCD | ≤ 0.25
VVIQ | ≤ 0.25
GVVF | 0.871
GHVP | ≤ 0.25
WQGQ | ≤ 0.25

Variant | enrichment ratio
VLQM | ≤ 0.25
LTSA | ≤ 0.25
EHVW | ≤ 0.25
IQCI | ≤ 0.25
QNGQ | ≤ 0.25
THEG | ≤ 0.25
FQAN | ≤ 0.25
KMNN | ≤ 0.25
PHTS | ≤ 0.25
NIIY | ≤ 0.25
VIWC | ≤ 0.25
PSTD | ≤ 0.25
MSCN | 1.97
YHYG | ≤ 0.25
VRFE | ≤ 0.25
AMKM | ≤ 0.25
HIHN | ≤ 0.25
VQVH | ≤ 0.25
VNCE | ≤ 0.25
TQDH | ≤ 0.25
QFKH | 2.9
YEAW | ≤ 0.25
ILKM | ≤ 0.25
IYFW | ≤ 0.25
WKEQ | ≤ 0.25
AQPP | ≤ 0.25

Variant | enrichment ratio
FGYS | ≤ 0.25
VHRN | ≤ 0.25
YWDM | ≤ 0.25
NKHD | ≤ 0.25
PAFF | ≤ 0.25
IAGP | ≤ 0.25
VKQP | ≤ 0.25
NHLR | ≤ 0.25
YLGP | ≤ 0.25
DRVC | ≤ 0.25
PTHF | ≤ 0.25
VPNM | ≤ 0.25
YYDH | ≤ 0.25
IDRF | ≤ 0.25
PPTN | ≤ 0.25
IVIW | ≤ 0.25
PVET | ≤ 0.25
MVGC | ≤ 0.25
DNWW | ≤ 0.25
HDRR | ≤ 0.25
DAHV | ≤ 0.25
DIVR | ≤ 0.25
QCWH | ≤ 0.25
KISS | ≤ 0.25
LCSV | ≤ 0.25
KQRW | ≤ 0.25

Variant | enrichment ratio
GKVL | 1.26
PQLS | ≤ 0.25
NDDG | ≤ 0.25
KFED | ≤ 0.25
SVPD | ≤ 0.25
FERG | ≤ 0.25
RCYP | ≤ 0.25
VANF | ≤ 0.25
KNNR | ≤ 0.25
YLTV | ≤ 0.25
TIQF | 9.01
TIQL | 10.3
QMSR | ≤ 0.25
VDYH | ≤ 0.25
QPIL | ≤ 0.25
DQPR | ≤ 0.25
DYFC | ≤ 0.25
QVEL | ≤ 0.25
HGCI | 17.9
TNGF | 15.9
RMVN | ≤ 0.25
SYWR | ≤ 0.25
DYVF | ≤ 0.25
IYWQ | ≤ 0.25
LVVG | ≤ 0.25
PEEG | ≤ 0.25

Variant | enrichment ratio
VKVA | ≤ 0.25
WHSL | ≤ 0.25
YWHH | ≤ 0.25
YKLK | ≤ 0.25
TDYD | ≤ 0.25
FTYQ | ≤ 0.25
HEQA | ≤ 0.25
AIAW | 2.98
QIKI | ≤ 0.25
QAMH | ≤ 0.25
KRAP | ≤ 0.25
KRTH | ≤ 0.25
SWWY | ≤ 0.25
FAMI | 2.3
TEVA | 6.58
AFNQ | ≤ 0.25
AHGV | ≤ 0.25
WRAW | ≤ 0.25
MPPA | ≤ 0.25
KKIS | ≤ 0.25
MRLS | ≤ 0.25
GSLM | 20.9
NCPR | ≤ 0.25
ASCC | 18.2
DDAT | ≤ 0.25
SPEG | ≤ 0.25

Variant | enrichment ratio
ASVY | 2.98
ICWQ | ≤ 0.25
GEQR | ≤ 0.25
NHKF | ≤ 0.25
QNTI | ≤ 0.25
ECCN | ≤ 0.25
QMFQ | ≤ 0.25
NPPY | ≤ 0.25
TWSS | ≤ 0.25
PWIC | ≤ 0.25
PTIV | ≤ 0.25
MYSE | ≤ 0.25
EISA | ≤ 0.25
TFCP | ≤ 0.25
ISKE | ≤ 0.25
YCQF | ≤ 0.25
WQAV | ≤ 0.25
PEPF | ≤ 0.25
SAKY | ≤ 0.25
GWQA | ≤ 0.25
YCPW | ≤ 0.25
TLCI | ≤ 0.25
NRIH | ≤ 0.25
